Reference: ChEMBL document CHEMBL1201862, “PubChem BioAssay data set” (2004)
Counter-ions that a name gives are not always drawn. Calls of active or inactive are those of the source.

How the values were obtained:
CAAX prenyl protease 2 [1] = biological target: T1, CAAX prenyl protease 2 (Homo sapiens, UniProt Q9Y256); test: inhibition of Ras-converting CAAX protease Rce1 – biochemical, yeast membranes, quenched-peptide fluorescence, cherry-pick, dose response (AID 588849)
T1 sequence (Q9Y256 whole entry): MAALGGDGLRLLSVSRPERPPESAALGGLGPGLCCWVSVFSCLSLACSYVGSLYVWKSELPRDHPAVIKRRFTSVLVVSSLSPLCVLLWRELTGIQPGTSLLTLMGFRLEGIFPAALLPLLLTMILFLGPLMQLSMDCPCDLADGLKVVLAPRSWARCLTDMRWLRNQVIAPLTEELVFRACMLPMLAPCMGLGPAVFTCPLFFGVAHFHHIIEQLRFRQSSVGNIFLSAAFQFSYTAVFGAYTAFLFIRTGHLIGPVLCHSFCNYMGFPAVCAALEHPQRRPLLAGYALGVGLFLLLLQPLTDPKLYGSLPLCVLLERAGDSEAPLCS

[2] = system: Streptococcus sp. 'group A'; test: Streptococcus pyogenes SK(-)GAS viability under kanamycin – luminescence, BacTiterGlo, confirmation, counter-screen for streptokinase expression inhibitor project, dose response (AID 1900); format: functional, organism-based
CAAX prenyl protease 2 [3] = biological target: T2, CAAX prenyl protease 2 (Saccharomyces cerevisiae S288c, UniProt Q03530); format: biochemical
T2 sequence (Q03530 whole entry): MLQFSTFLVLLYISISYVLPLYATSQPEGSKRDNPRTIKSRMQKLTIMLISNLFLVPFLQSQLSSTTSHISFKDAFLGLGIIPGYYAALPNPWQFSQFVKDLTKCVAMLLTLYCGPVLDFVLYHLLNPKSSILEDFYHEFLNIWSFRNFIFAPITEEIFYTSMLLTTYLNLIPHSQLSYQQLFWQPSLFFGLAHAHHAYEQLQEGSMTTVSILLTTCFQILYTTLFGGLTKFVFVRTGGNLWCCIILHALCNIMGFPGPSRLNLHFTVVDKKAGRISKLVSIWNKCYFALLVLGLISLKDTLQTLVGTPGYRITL

Streptokinase A = biological target: T3, Streptokinase A (Streptococcus pyogenes serotype M1, UniProt P10520); test: viability-normalized secreted streptokinase activity reduction – plasminogen activation absorbance, OD405, dose response (AID 1914); format: functional, Streptococcus pyogenes M1 GAS;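 further: secreted streptokinase activity via plasminogen activation per viability signal from cell pellet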
T3 sequence (P10520 whole entry): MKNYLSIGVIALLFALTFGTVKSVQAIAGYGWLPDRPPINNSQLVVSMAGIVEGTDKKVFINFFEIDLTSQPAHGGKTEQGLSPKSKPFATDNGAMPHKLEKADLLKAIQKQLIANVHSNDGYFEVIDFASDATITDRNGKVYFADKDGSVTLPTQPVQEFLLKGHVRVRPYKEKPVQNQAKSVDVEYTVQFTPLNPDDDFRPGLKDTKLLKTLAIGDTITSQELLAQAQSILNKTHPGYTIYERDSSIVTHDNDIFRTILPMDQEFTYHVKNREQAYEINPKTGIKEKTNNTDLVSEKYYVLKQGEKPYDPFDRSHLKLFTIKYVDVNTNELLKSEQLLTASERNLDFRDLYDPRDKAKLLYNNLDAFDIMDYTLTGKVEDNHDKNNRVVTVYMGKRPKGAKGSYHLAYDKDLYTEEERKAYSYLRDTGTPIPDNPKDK

Fc1ccc(C(c2ccc(F)cc2)N2CCN(C/C=C/c3ccccc3)CC2)cc1 [FLUNARIZINE DIHYDROCHLORIDE]
active: AC50 (CAAX prenyl protease 2 [1]) 70.9 µM | EC50 [2] 8.7 µM | AC50 (CAAX prenyl protease 2 [3]) 3.5 µM | EC50 (Streptokinase A) 9.95 µM
